A lower IC50 marks a more sensitive line; a limit (>, <) means that the fit lies beyond the doses tested. AUC is the area under the same curve over the 256-fold range up to the top dose, as a fraction; values near 1 show little effect. A top dose marked as inferred is not printed in the source and was worked back from the curve model.

Compound in the assay: N.N.[Cl][Pt][Cl] [Cisplatin]
Kind of assay: Viability of human cancer cell lines after 72 h of drug (GDSC screen). Conditions: top dose inferred. The method, then:
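Human cancer cell lines in 384-well plates, medium with 10% serum, drug for 72 h over a 256-fold dose range (nine 2-fold or five 4-fold steps up to the top dose). Adherent lines were fixed and stained with the nucleic acid dye Syto60, suspension lines read with resazurin; signal relative to control wells, capped at 0 and 100%. One two-parameter sigmoid per drug and line, fitted in a mixed model over all curves with the slope shared within a line.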
Usually IC50 stands for the concentration needed to halve the response being measured. Turning to “QIMR-WIL (acute myeloid leukaemia, suspension, top dose 10 µM)”, the AUC is 0.859 and the 50% inhibitory concentration (IC50) was 7.92 µM.

As for “RC-K8 (B-cell lymphoma, suspension, top dose 10 µM)”, the AUC stood at 0.976 and the half-inhibitory concentration (IC50) is above 10 µM.

Take “RCC10RGB (kidney, adherent, top dose 10 µM)”: the AUC was 0.972 and the IC50 is above 10 µM.

Take “RCC-AB (kidney, adherent, top dose 10 µM)”: the AUC amounted to 0.951 and the IC50 is above 10 µM.

“RCC-ER (kidney, adherent, top dose 10 µM)”: the AUC came to 0.854 and the IC50 worked out at 9.38 µM.

“RCC-FG2 (kidney, adherent, top dose 10 µM)”: the AUC came to 0.749 and the IC50 is 4.03 µM.

As to “RCC-JF (kidney, adherent, top dose 10 µM)”, the AUC stood at 0.53 and the IC50 is 0.761 µM.

As for “RCC-JW (kidney, adherent, top dose 10 µM)”, the AUC amounted to 0.506 and the IC50 stood at 0.65 µM.

Take “RCC-MF (kidney, adherent, top dose 10 µM)”: the AUC was determined as 0.428 and the half-maximal inhibitory concentration (IC50) is 0.376 µM.

For the cell line “RCH-ACV (B-cell leukaemia, suspension, top dose 10 µM)”, the AUC is 0.754 and the IC50 amounted to 2.84 µM.

As for “RCM-1 (large intestine, adherent, top dose 10 µM)”, the AUC came out at 0.949 and the IC50 was above 10 µM.

For “REH (B-cell leukaemia, suspension, top dose 10 µM)”, the AUC is 0.87 and the IC50 is 8.71 µM.

Regarding “RERF-LC-KJ (lung adenocarcinoma, adherent, top dose 10 µM)”, the AUC stood at 0.903 and the IC50 was above 10 µM.

As to “RERF-LC-MS (lung adenocarcinoma, adherent, top dose 10 µM)”, the AUC was 0.93 and the IC50 is above 10 µM.

Consider “RERF-LC-Sq1 (lung squamous cell carcinoma, adherent, top dose 10 µM)”, for which the AUC came to 0.946 and the IC50 is above 10 µM.

Regarding “RF-48 (stomach, adherent, top dose 10 µM)”, the AUC was 0.952 and the IC50 is above 10 µM.

As to “RH-1 (rhabdomyosarcoma, adherent, top dose 10 µM)”, the AUC was found to be 0.902 and the half-maximal inhibitory concentration (IC50) worked out at 9.22 µM.

Turning to “RH-18 (rhabdomyosarcoma, adherent, top dose 10 µM)”, the AUC is 0.973 and the half-maximal inhibitory concentration (IC50) was above 10 µM.

For “RH-41 (rhabdomyosarcoma, adherent, top dose 10 µM)”, the AUC turned out to be 0.929 and the IC50 is above 10 µM.

On to RKN (ovary, adherent, top dose 10 µM), for which the AUC turned out to be 0.896 and the IC50 is above 10 µM.

With “RKO (large intestine, adherent, top dose 10 µM)”, the AUC was determined as 0.943 and the IC50 is above 10 µM.

In the case of “RL95-2 (endometrium, adherent, top dose 10 µM)”, the AUC is 0.911 and the IC50 was above 10 µM.

Consider “RL (B-cell lymphoma, suspension, top dose 10 µM)”, for which the AUC amounted to 0.99 and the IC50 is above 10 µM.

On to RMG-I (ovary, adherent, top dose 10 µM), for which the AUC is 0.983 and the 50% inhibitory concentration (IC50) is above 10 µM.

Turning to “RO82-W-1 (thyroid, adherent, top dose 10 µM)”, the AUC turned out to be 0.915 and the IC50 was above 10 µM.

Consider “ROS-50 (B-cell leukaemia, suspension, top dose 6 µM)”, for which the AUC is 0.948 and the IC50 was above 6 µM.

Take “RPMI-2650 (head and neck, adherent, top dose 10 µM)”: the AUC was 0.947 and the IC50 was above 10 µM.

Turning to “RPMI-6666 (Hodgkin lymphoma, suspension, top dose 10 µM)”, the AUC came out at 0.827 and the concentration for half-maximal inhibition (IC50) amounted to 7.82 µM.

In the case of “RPMI-7951 (melanoma, adherent, top dose 10 µM)”, the AUC came out at 0.797 and the IC50 stood at 4.55 µM.

On to “RPMI-8226 (myeloma, suspension, top dose 10 µM)”, for which the AUC is 0.932 and the IC50 was above 10 µM.

For the cell line “RPMI-8402 (T-cell lymphoblastic leukaemia, suspension, top dose 10 µM)”, the AUC was 0.877 and the 50% inhibitory concentration (IC50) came to 7.32 µM.

Regarding “RPMI-8866 (chronic myeloid leukaemia, suspension, top dose 10 µM)”, the AUC stood at 0.834 and the IC50 amounted to 5.85 µM.

In the case of RT4 (bladder, adherent, top dose 10 µM), the AUC amounted to 0.902 and the IC50 is above 10 µM.

On to “RVH-421 (melanoma, adherent, top dose 10 µM)”, for which the AUC amounted to 0.931 and the IC50 was above 10 µM.

For the cell line “RXF393 (kidney, adherent, top dose 10 µM)”, the AUC stood at 0.797 and the concentration for half-maximal inhibition (IC50) was 6.98 µM.

As to “Raji (Burkitt lymphoma, suspension, top dose 10 µM)”, the AUC came out at 0.951 and the IC50 was above 10 µM.

Consider “Ramos-2G6-4C10 (Burkitt lymphoma, suspension, top dose 10 µM)”, for which the AUC worked out at 0.948 and the IC50 is above 10 µM.

Take “SAS (head and neck, adherent, top dose 10 µM)”: the AUC is 0.807 and the IC50 turned out to be 5.84 µM.

Turning to “SAT (head and neck, adherent, top dose 10 µM)”, the AUC is 0.817 and the IC50 is above 10 µM.

“SBC-1 (small cell lung carcinoma, suspension, top dose 10 µM)”: the AUC amounted to 0.986 and the IC50 was above 10 µM.

In the case of “SBC-3 (small cell lung carcinoma, adherent, top dose 10 µM)”, the AUC stood at 0.77 and the IC50 turned out to be 3.48 µM.

As to “SBC-5 (small cell lung carcinoma, adherent, top dose 10 µM)”, the AUC amounted to 0.965 and the half-inhibitory concentration (IC50) is above 10 µM.

As to “SCC90 (head and neck, adherent, top dose 10 µM)”, the AUC was 0.873 and the IC50 is above 10 µM.

Take “SCC-4 (head and neck, adherent, top dose 10 µM)”: the AUC was determined as 0.902 and the IC50 is above 10 µM.

Consider “SCC-9 (head and neck, adherent, top dose 10 µM)”, for which the AUC amounted to 0.919 and the IC50 was above 10 µM.

As to “SCC-25 (head and neck, adherent, top dose 10 µM)”, the AUC was found to be 0.949 and the IC50 was above 10 µM.

SCH (stomach, adherent, top dose 10 µM): the AUC came out at 0.879 and the IC50 was above 10 µM.

Regarding “SF126 (glioma, adherent, top dose 10 µM)”, the AUC is 0.855 and the IC50 turned out to be 8.71 µM.

On to “SF268 (glioma, adherent, top dose 10 µM)”, for which the AUC came to 0.657 and the IC50 was determined as 1.76 µM.

Regarding “SF295 (glioma, adherent, top dose 10 µM)”, the AUC was determined as 0.873 and the IC50 is above 10 µM.

In the case of “SF539 (glioma, adherent, top dose 10 µM)”, the AUC turned out to be 0.79 and the half-inhibitory concentration (IC50) was determined as 3.98 µM.

As to “SH-4 (melanoma, adherent, top dose 10 µM)”, the AUC was 0.938 and the 50% inhibitory concentration (IC50) was above 10 µM.

For “SHP-77 (small cell lung carcinoma, semi-adherent, top dose 10 µM)”, the AUC stood at 0.991 and the IC50 was above 10 µM.

Take “SIMA (neuroblastoma, adherent, top dose 10 µM)”: the AUC is 0.876 and the concentration for half-maximal inhibition (IC50) was above 10 µM.

As to SISO (cervix, adherent, top dose 10 µM), the AUC is 0.644 and the IC50 is 1.53 µM.

Consider “SJRH30 (rhabdomyosarcoma, adherent, top dose 10 µM)”, for which the AUC is 0.891 and the 50% inhibitory concentration (IC50) is above 10 µM.

With SJSA-1 (bone, adherent, top dose 10 µM), the AUC was 0.901 and the 50% inhibitory concentration (IC50) was above 10 µM.

In the case of “SK-ES-1 (Ewing sarcoma, semi-adherent, top dose 10 µM)”, the AUC was 0.76 and the IC50 was 3.73 µM.

Take “SK-GT-2 (stomach, adherent, top dose 10 µM)”: the AUC is 0.859 and the concentration for half-maximal inhibition (IC50) stood at 8.97 µM.

For “SK-GT-4 (oesophagus, adherent, top dose 10 µM)”, the AUC was 0.901 and the IC50 was above 10 µM.

Regarding “SK-HEP-1 (liver, adherent, top dose 10 µM)”, the AUC stood at 0.926 and the IC50 is above 10 µM.

Take “SK-LMS-1 (soft tissue, adherent, top dose 10 µM)”: the AUC worked out at 0.834 and the IC50 was 6.07 µM.

Consider “SK-MEL-1 (melanoma, suspension, top dose 10 µM)”, for which the AUC amounted to 0.989 and the IC50 is above 10 µM.

For the cell line “SK-MEL-2 (melanoma, adherent, top dose 10 µM)”, the AUC worked out at 0.863 and the IC50 amounted to 9.23 µM.

For the cell line “SK-MEL-3 (melanoma, adherent, top dose 10 µM)”, the AUC amounted to 0.98 and the IC50 is above 10 µM.

As to “SK-MEL-5 (melanoma, adherent, top dose 10 µM)”, the AUC worked out at 0.845 and the IC50 was 9.73 µM.

On to “SK-MEL-24 (melanoma, adherent, top dose 10 µM)”, for which the AUC was 0.879 and the IC50 is above 10 µM.

Take “SK-MEL-30 (melanoma, adherent, top dose 10 µM)”: the AUC is 0.778 and the half-inhibitory concentration (IC50) turned out to be 4.26 µM.
